# Measurements published in the supplement of paper PMC8728848.
# Some of the results follow.
# B1: Clrb (Mus musculus) (protein)
# chain: ITGATKTEQIPVNKTYAACPQNWIGVENKCFYFSEYPSNWTFAQAFCMAQEAQLARFDNQDELNFLMRYKANFDSWIGLHRESSEHPWKWTDNTEYNNTIPIRGEERFAYLNNNGISSTRIYSLRMWICSKLNSYSLHCQTPFFPSGTKHHHHHHHHG
# Tests used:
# Assay in all cases: glycan array binding signal (z-score within array); higher = stronger binding
# Settings in all cases: glycan notation: IUPAC condensed, linker removed
# [1] = target: Neu5Ac(a2-3)Gal(b1-4)GlcNAc
# Outline: (§1)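 Glycan array binding is given as a within-array Z-score, which can be read as non-binding when negative. The arrays, 3228 of them, came from the Consortium for Functional Glycomics database and were retained only where the protein sequence was available. Z-scores were averaged across arrays of the same protein sequence at different concentrations or buffers and across linkers.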
# [2] = target: Neu5Ac(a2-3)Gal(b1-4)GlcNAc(b1-2)Man
# Outline: as §1
# [3] = target: Neu5Ac(a2-3)Gal(b1-4)GlcNAc(b1-2)Man(a1-3)[GlcNAc(b1-4)][Neu5Ac(a2-3)Gal(b1-4)GlcNAc(b1-2)Man(a1-6)]Man(b1-4)GlcNAc(b1-4)GlcNAc
# Outline: as §1
# [4] = target: Neu5Ac(a2-3)Gal(b1-4)GlcNAc(b1-2)Man(a1-3)[Neu5Ac(a2-3)Gal(b1-4)GlcNAc(b1-2)Man(a1-6)]Man(b1-4)GlcNAc(b1-4)GlcNAc
# Outline: as §1
# [5] = target: Neu5Ac(a2-3)Gal(b1-4)GlcNAc(b1-2)Man(a1-3)[Neu5Ac(a2-3)Gal(b1-4)GlcNAc(b1-2)Man(a1-6)]Man(b1-4)GlcNAc(b1-4)[Fuc(a1-6)]GlcNAc
# Outline: as §1
# [6] = target: Neu5Ac(a2-3)Gal(b1-4)GlcNAc(b1-2)Man(a1-3)[Neu5Ac(a2-6)Gal(b1-4)GlcNAc(b1-2)Man(a1-6)]Man(b1-4)GlcNAc(b1-4)GlcNAc
# Outline: as §1
# [7] = target: Neu5Ac(a2-3)Gal(b1-4)GlcNAc(b1-2)[Neu5Ac(a2-3)Gal(b1-4)GlcNAc(b1-4)]Man(a1-3)[GlcNAc(b1-4)][Neu5Ac(a2-3)Gal(b1-4)GlcNAc(b1-2)[Neu5Ac(a2-3)Gal(b1-4)GlcNAc(b1-6)]Man(a1-6)]Man(b1-4)GlcNAc(b1-4)GlcNAc
# Outline: as §1
# [8] = target: Neu5Ac(a2-3)Gal(b1-4)GlcNAc(b1-2)[Neu5Ac(a2-3)Gal(b1-4)GlcNAc(b1-4)]Man(a1-3)[GlcNAc(b1-4)][Neu5Ac(a2-3)Gal(b1-4)GlcNAc(b1-4)Man(a1-6)]Man(b1-4)GlcNAc(b1-4)GlcNAc
# Outline: as §1
# [9] = target: Neu5Ac(a2-3)Gal(b1-4)GlcNAc(b1-2)[Neu5Ac(a2-3)Gal(b1-4)GlcNAc(b1-6)]Man(a1-6)[Neu5Ac(a2-3)Gal(b1-4)GlcNAc(b1-2)Man(a1-3)]Man(b1-4)GlcNAc(b1-4)GlcNAc
# Outline: as §1
# [10] = target: Neu5Ac(a2-3)Gal(b1-4)GlcNAc(b1-2)[Neu5Ac(a2-3)Gal(b1-4)GlcNAc(b1-6)]Man(a1-6)[Neu5Ac(a2-3)Gal(b1-4)GlcNAc(b1-2)Man(a1-3)][GlcNAc(b1-4)]Man(b1-4)GlcNAc(b1-4)GlcNAc
# Outline: as §1
# [11] = target: Neu5Ac(a2-3)Gal(b1-4)GlcNAc(b1-3)Gal
# Outline: as §1
# [12] = target: Neu5Ac(a2-3)Gal(b1-4)GlcNAc(b1-3)Gal(b1-3)GlcNAc
# Outline: as §1
# [13] = target: Neu5Ac(a2-3)Gal(b1-4)GlcNAc(b1-3)Gal(b1-4)GlcNAc
# Outline: as §1
# [14] = target: Neu5Ac(a2-3)Gal(b1-4)GlcNAc(b1-3)Gal(b1-4)GlcNAc(b1-2)Man(a1-3)[Neu5Ac(a2-3)Gal(b1-4)GlcNAc(b1-3)Gal(b1-4)GlcNAc(b1-2)Man(a1-6)]Man(b1-4)GlcNAc(b1-4)GlcNAc
# Outline: as §1
# [15] = target: Neu5Ac(a2-3)Gal(b1-4)GlcNAc(b1-3)Gal(b1-4)GlcNAc(b1-3)Gal(b1-4)GlcNAc
# Outline: as §1
# [16] = target: Neu5Ac(a2-3)Gal(b1-4)GlcNAc(b1-3)Gal(b1-4)GlcNAc(b1-3)Gal(b1-4)GlcNAc(b1-2)Man(a1-3)[Neu5Ac(a2-3)Gal(b1-4)GlcNAc(b1-3)Gal(b1-4)GlcNAc(b1-3)Gal(b1-4)GlcNAc(b1-2)Man(a1-6)]GalNAc
# Outline: as §1
# [17] = target: Neu5Ac(a2-3)Gal(b1-4)GlcNAc(b1-3)Gal(b1-4)GlcNAc(b1-3)GalNAc
# Outline: as §1
# [18] = target: Neu5Ac(a2-3)Gal(b1-4)GlcNAc(b1-3)Gal(b1-4)GlcNAc(b1-3)[Neu5Ac(a2-3)Gal(b1-4)GlcNAc(b1-3)Gal(b1-4)GlcNAc(b1-6)]GalNAc
# Outline: as §1
# [19] = target: Neu5Ac(a2-3)Gal(b1-4)GlcNAc(b1-3)Gal(b1-4)GlcNAc(b1-6)[Gal(b1-3)]GalNAc
# Outline: as §1
# [20] = target: Neu5Ac(a2-3)Gal(b1-4)GlcNAc(b1-3)Gal(b1-4)[Fuc(a1-3)]GlcNAc
# Outline: as §1
# [21] = target: Neu5Ac(a2-3)Gal(b1-4)GlcNAc(b1-3)GalNAc
# Outline: as §1
# [22] = target: Neu5Ac(a2-3)Gal(b1-4)GlcNAc(b1-3)[Neu5Ac(a2-3)Gal(b1-4)GlcNAc(b1-6)]GalNAc
# Outline: as §1
# [23] = target: Neu5Ac(a2-3)Gal(b1-4)GlcNAc(b1-6)GalNAc
# Outline: as §1
# [24] = target: Neu5Ac(a2-3)Gal(b1-4)GlcNAc(b1-6)[Gal(b1-3)]GalNAc
# Outline: as §1
# [25] = target: Neu5Ac(a2-3)Gal(b1-4)GlcNAc(b1-6)[Neu5Ac(a2-3)Gal(b1-3)]GalNAc
# Outline: as §1
# [26] = target: Neu5Ac(a2-3)Gal(b1-4)GlcNAc6S
# Outline: as §1
# [27] = target: Neu5Ac(a2-3)Gal(b1-4)[Fuc(a1-3)]GlcNAc
# Outline: as §1
# [28] = target: Neu5Ac(a2-3)Gal(b1-4)[Fuc(a1-3)]GlcNAc(b1-2)Man
# Outline: as §1
# [29] = target: Neu5Ac(a2-3)Gal(b1-4)[Fuc(a1-3)]GlcNAc(b1-3)Gal
# Outline: as §1
# [30] = target: Neu5Ac(a2-3)Gal(b1-4)[Fuc(a1-3)]GlcNAc(b1-3)Gal(b1-4)GlcNAc
# Outline: as §1
# [31] = target: Neu5Ac(a2-3)Gal(b1-4)[Fuc(a1-3)]GlcNAc(b1-3)Gal(b1-4)[Fuc(a1-3)]GlcNAc(b1-3)Gal(b1-4)[Fuc(a1-3)]GlcNAc
# Outline: as §1
# [32] = target: Neu5Ac(a2-3)Gal(b1-4)[Fuc(a1-3)]GlcNAc(b1-3)GalNAc
# Outline: as §1
# [33] = target: Neu5Ac(a2-3)Gal(b1-4)[Fuc(a1-3)]GlcNAc(b1-6)[Gal(b1-3)]GalNAc
# Outline: as §1
# [34] = target: Neu5Ac(a2-3)Gal(b1-4)[Fuc(a1-3)]GlcNAc(b1-6)[Neu5Ac(a2-3)Gal(b1-3)]GalNAc
# Outline: as §1
# [35] = target: Neu5Ac(a2-3)Gal(b1-4)[Fuc(a1-3)]GlcNAc6S
# Outline: as §1
# [36] = target: Neu5Ac(a2-3)Gal6S(b1-4)GlcNAc
# Outline: as §1
# [37] = target: Neu5Ac(a2-3)Gal6S(b1-4)[Fuc(a1-3)]GlcNAc
# Outline: as §1
# Neu5Ac(a2-3)GalNAc = target: Neu5Ac(a2-3)GalNAc
# Outline: as §1
binder,measurement,setting,value
B1,glycan array binding signal (z-score),[1],0.03
same,glycan array binding signal (z-score),[2],-0.317
same,glycan array binding signal (z-score),[3],0.656
same,glycan array binding signal (z-score),[4],-0.311
same,glycan array binding signal (z-score),[5],-0.226
same,glycan array binding signal (z-score),[6],-0.294
same,glycan array binding signal (z-score),[7],-0.305
same,glycan array binding signal (z-score),[8],-0.366
same,glycan array binding signal (z-score),[9],-0.142
same,glycan array binding signal (z-score),[10],0.153
same,glycan array binding signal (z-score),[11],-0.291
same,glycan array binding signal (z-score),[12],-0.383
same,glycan array binding signal (z-score),[13],0.115
same,glycan array binding signal (z-score),[14],-0.206
same,glycan array binding signal (z-score),[15],-0.076
same,glycan array binding signal (z-score),[16],-0.185
same,glycan array binding signal (z-score),[17],-0.312
same,glycan array binding signal (z-score),[18],-0.488
same,glycan array binding signal (z-score),[19],-0.208
same,glycan array binding signal (z-score),[20],-0.247
same,glycan array binding signal (z-score),[21],-0.44
same,glycan array binding signal (z-score),[22],-0.487
same,glycan array binding signal (z-score),[23],-0.392
same,glycan array binding signal (z-score),[24],-0.4
same,glycan array binding signal (z-score),[25],-0.304
same,glycan array binding signal (z-score),[26],-0.276
same,glycan array binding signal (z-score),[27],-0.371
same,glycan array binding signal (z-score),[28],-0.421
same,glycan array binding signal (z-score),[29],-0.105
same,glycan array binding signal (z-score),[30],-0.268
same,glycan array binding signal (z-score),[31],-0.171
same,glycan array binding signal (z-score),[32],-0.205
same,glycan array binding signal (z-score),[33],0.014
same,glycan array binding signal (z-score),[34],-0.149
same,glycan array binding signal (z-score),[35],-0.34
same,glycan array binding signal (z-score),[36],-0.365
same,glycan array binding signal (z-score),[37],-0.241
same,glycan array binding signal (z-score),Neu5Ac(a2-3)GalNAc,-0.492
